This is an account of results in patent US10299477B2 (priority 2015, dated 2019).

For one test, the system named is Phytophthora infestans. The format is in vivo. As to conditions: for Test F (control value class): 250 ppm spray; for Test F control value: 250 ppm sprayed before inoculation; for Test F (control value class, late blight on tomato): 250 ppm, sprayed 2.5 ml/pot before inoculation.
In another test the test system is Magnaporthe grisea. The format is in vivo. As to conditions: for Test A (control value class, blast on rice): in vivo.
Where [1] appears, read: late blight on tomato, Phytophthora infestans, 5-10 days after inoculation.
The mark [2] stands for this setting: rice blast, Magnaporthe grisea, 250 ppm spray.
[3] abbreviates: Late blight on tomato, 2.5 ml/pot, evaluated 5-10 days after inoculation.
[4] abbreviates: Blast on rice, control value=100{1-(n/3)}.
Setting [5] is: Late blight on tomato, 5-10 days after inoculation.
Where [6] appears, read: evaluated 5-10 days after inoculation.

Where two headings read alike, the source gives them in different places.

Take `CCn1c(-c2c(F)cccc2F)c(-c2cccc(Cl)c2F)cc(Cl)c1=O` [Compound 473]: the “Test F (control value class)” value with Phytophthora infestans (setting [1]) was “L (L shows 50% or less of control values)”. The “Test A (control value class)” value in the test with Magnaporthe grisea (setting [2]) is “H (H shows more than 50% of control values)”.

For `CCn1c(-c2ncc(Cl)cc2Cl)c(-c2c(F)cccc2F)ccc1=O` [Compound 6], the “Test A control value” in the test with Magnaporthe grisea (Blast on rice) is reported as “H (H shows more than 50% of control values)”.

For `CCn1c(-c2c(F)cc(F)cc2F)c(-c2cc(OC)ccc2Cl)cc(Cl)c1=O` [Compound 404], the “Test F (control value class)” value in the test with Phytophthora infestans (setting [1]) was “L (L shows 50% or less of control values)”. For the same molecule, the “Test A (control value class)” value with Magnaporthe grisea (setting [2]) is “H (H shows more than 50% of control values)”.

As to `O=c1ccc(-c2cc(Cl)ccc2F)c(-c2c(F)cccc2F)n1CC(F)F` [Compound 539], in the test on Phytophthora infestans (setting [1]), the “Test F (control value class)” value is recorded as “H (H shows more than 50% of control values)”. For the same molecule, the “Test A (control value class)” value with Magnaporthe grisea (setting [2]) is “H (H shows more than 50% of control values)”.

Take `CCn1c(-c2c(F)cccc2F)c(-c2cccc(F)c2F)cc(Br)c1=O` [Compound 520]: the “Test F (control value class)” value in the test on Phytophthora infestans (setting [1]) was “L (L shows 50% or less of control values)”. In the test with Magnaporthe grisea (setting [2]), the “Test A (control value class)” value is given as “H (H shows more than 50% of control values)”.

For the molecule `COc1cc(F)c(-c2c(-c3cc(F)cc(F)c3Br)cc(Cl)c(=O)n2C)c(F)c1` [Compound 824], in the test with Phytophthora infestans (setting [3]), the “Test F (control value class)” value was “L (L shows 50% or less of control values)”. The “Test A (control value class)” value in the test with Magnaporthe grisea (setting [4]) is reported as “H (H shows more than 50% of control values)”.

`CCn1c(-c2c(F)cc(OC)cc2F)c(-c2cc(F)cc(F)c2Br)cc(Cl)c1=O` [Compound 819]: the “Test F (control value class)” value in the test on Phytophthora infestans (setting [3]) is reported as “H (H shows more than 50% of control values)”. For the same molecule, the “Test A (control value class)” value in the test on Magnaporthe grisea (setting [4]) was “H (H shows more than 50% of control values)”.

`CCn1c(-c2c(F)cccc2F)c(-c2cc(OCC#N)ccc2Cl)cc(Br)c1=O` [Compound 128]: in the test with Phytophthora infestans (setting [5]), the “Test F control value” is listed as “L (L shows 50% or less of control values)”. Moreover, the “Test A control value” in the test with Magnaporthe grisea (Blast on rice) is “H (H shows more than 50% of control values)”.

For the molecule `CCn1c(-c2c(F)cccc2F)c(-c2cc(OC)ccc2Cl)cc(SC)c1=O` [Compound 375], the “Test F (control value class)” value in the test on Phytophthora infestans (setting [1]) is given as “L (L shows 50% or less of control values)”. The “Test A (control value class)” value in the test with Magnaporthe grisea (setting [2]) is given as “H (H shows more than 50% of control values)”.

Regarding `COc1ccc(Cl)c(-c2ccc(=O)n(N)c2-c2c(F)cccc2F)c1` [Compound 422], in the test on Phytophthora infestans (setting [1]), the “Test F (control value class)” value is listed as “H (H shows more than 50% of control values)”. Further, the “Test A (control value class)” value with Magnaporthe grisea (setting [2]) is recorded as “H (H shows more than 50% of control values)”.

Consider `C#CCn1c(-c2c(F)cccc2F)c(-c2cc(OC)ccc2Cl)ccc1=O` [Compound 458], for which the “Test F (control value class)” value in the test with Phytophthora infestans (setting [1]) is listed as “L (L shows 50% or less of control values)”. In addition, the “Test A (control value class)” value in the test with Magnaporthe grisea (setting [2]) was “H (H shows more than 50% of control values)”.

Consider `COc1cc(OC)c(Cl)c(-c2ccc(=O)n(/C=C/F)c2-c2c(F)cc(F)cc2F)c1` [Compound 379], for which, in the test on Phytophthora infestans (setting [1]), the “Test F (control value class)” value is on record as “H (H shows more than 50% of control values)”. The “Test A (control value class)” value in the test on Magnaporthe grisea (setting [2]) is listed as “H (H shows more than 50% of control values)”.

For the molecule `Cn1c(-c2c(F)cccc2F)c(-c2cccc(Cl)c2F)cc(Cl)c1=O` [Compound 475], in the test with Phytophthora infestans (setting [1]), the “Test F (control value class)” value is given as “L (L shows 50% or less of control values)”. Further, the “Test A (control value class)” value in the test with Magnaporthe grisea (setting [2]) is “H (H shows more than 50% of control values)”.

For the molecule `COc1cc(F)c(-c2c(-c3ccccc3F)cc(Cl)c(=O)n2C)c(F)c1` [Compound 570], in the test with Phytophthora infestans (setting [6]), the “Test F (control value class, late blight on tomato)” value is “L (L shows 50% or less of control values)”. Moreover, the “Test A (control value class, blast on rice)” value in the test on Magnaporthe grisea is on record as “H (H shows more than 50% of control values)”.

Regarding `CCn1c(-c2c(F)cc(OC)cc2F)c(-c2ccc(F)cc2Cl)cc(Cl)c1=O` [Compound 593], the “Test F (control value class, late blight on tomato)” value in the test on Phytophthora infestans (setting [6]) is “L (L shows 50% or less of control values)”. Also, the “Test A (control value class, blast on rice)” value in the test with Magnaporthe grisea was “H (H shows more than 50% of control values)”.

As for `CCn1c(-c2c(F)cc(OC)cc2F)c(-c2cccc(F)c2Cl)cc(Cl)c1=O` [Compound 490], the “Test F (control value class)” value with Phytophthora infestans (setting [1]) is “L (L shows 50% or less of control values)”. In addition, the “Test A (control value class)” value in the test with Magnaporthe grisea (setting [2]) is listed as “H (H shows more than 50% of control values)”.

Take `CCN1C(=S)CCC(c2cc(OC)ccc2Cl)=C1c1c(F)cccc1F` [Compound 581]: in the test on Phytophthora infestans (setting [6]), the “Test F (control value class, late blight on tomato)” value is listed as “L (L shows 50% or less of control values)”. The “Test A (control value class, blast on rice)” value with Magnaporthe grisea was “H (H shows more than 50% of control values)”.

On to `COc1cc(OC)c(Cl)c(-c2ccc(=O)n(C)c2-c2c(F)cc(F)cc2F)c1` [Compound 136, 5-(2-chloro-3,5-dimethoxyphenyl)-1-methyl-6-(2,4,6-trifluorophenyl)pyridine-2(1H)-one], for which, in the test with Phytophthora infestans (setting [5]), the “Test F control value” was “H (H shows more than 50% of control values)”. In the test with Magnaporthe grisea (Blast on rice), the “Test A control value” is on record as “H (H shows more than 50% of control values)”.

For `CCn1c(-c2c(F)cccc2F)c(-c2c(F)cccc2Cl)ccc1=O` [Compound 385], in the test on Phytophthora infestans (setting [1]), the “Test F (control value class)” value is reported as “H (H shows more than 50% of control values)”. Also, the “Test A (control value class)” value in the test on Magnaporthe grisea (setting [2]) is recorded as “H (H shows more than 50% of control values)”.

Consider `COc1cc(OC)cc(-c2ccc(=O)n(C)c2-c2c(F)cccc2Br)c1` [Compound 183], for which the “Test F control value” with Phytophthora infestans (setting [5]) is “L (L shows 50% or less of control values)”. Besides, the “Test A control value” in the test on Magnaporthe grisea (Blast on rice) is recorded as “H (H shows more than 50% of control values)”.

Take `CCn1c(-c2c(F)cc(F)cc2F)c(-c2cccc(F)c2F)ccc1=O` [Compound 558]: in the test with Phytophthora infestans (setting [1]), the “Test F (control value class)” value is recorded as “L (L shows 50% or less of control values)”. Moreover, the “Test A (control value class)” value in the test on Magnaporthe grisea (setting [2]) is listed as “H (H shows more than 50% of control values)”.

Consider `CCN1C(=O)CCC(c2cccc(F)c2)=C1c1c(F)cccc1F` [Compound 156], for which the “Test F control value” with Phytophthora infestans (setting [5]) is listed as “H (H shows more than 50% of control values)”. Also, the “Test A control value” in the test with Magnaporthe grisea (Blast on rice) is recorded as “H (H shows more than 50% of control values)”.

As to `COc1cc(F)c(-c2c(-c3cc(F)cc(F)c3F)ccc(=O)n2C)c(F)c1` [Compound 550], the “Test F (control value class)” value with Phytophthora infestans (setting [1]) is on record as “L (L shows 50% or less of control values)”. Moreover, the “Test A (control value class)” value with Magnaporthe grisea (setting [2]) is recorded as “H (H shows more than 50% of control values)”.

Take `Cn1c(-c2c(F)cccc2F)c(-c2cccc(F)c2Cl)ccc1=O` [Compound 508]: in the test on Phytophthora infestans (setting [1]), the “Test F (control value class)” value is “H (H shows more than 50% of control values)”. The “Test A (control value class)” value in the test on Magnaporthe grisea (setting [2]) is “H (H shows more than 50% of control values)”.

For `CCn1c(-c2c(F)cccc2F)c(-c2cccc(F)c2)ccc1=O` [Compound 153], the “Test F control value” with Phytophthora infestans (setting [5]) was “H (H shows more than 50% of control values)”. The “Test A control value” with Magnaporthe grisea (Blast on rice) is given as “H (H shows more than 50% of control values)”.

Consider `CCn1c(-c2c(F)cccc2F)c(-c2cc(OC)cc(OC)c2Br)ccc1=O` [Compound 16], for which the “Test A control value” with Magnaporthe grisea (Blast on rice) is “H (H shows more than 50% of control values)”.

For `CCn1c(-c2c(F)cc(F)cc2F)c(-c2cccc(OC)c2Cl)cc(C)c1=O` [Compound 632], in the test with Phytophthora infestans (setting [6]), the “Test F (control value class, late blight on tomato)” value was “L (L shows 50% or less of control values)”.

Take `COc1cccc(-c2cc(Cl)c(=O)n(C)c2-c2c(F)cccc2F)c1Cl` [Compound 785]: the “Test F (control value class)” value with Phytophthora infestans (setting [3]) was “H (H shows more than 50% of control values)”.

With `CCn1c(-c2c(F)cc(OC)cc2F)c(-c2ccccc2)ccc1=O` [Compound 763], the “Test F (control value class)” value in the test on Phytophthora infestans (setting [3]) is on record as “H (H shows more than 50% of control values)”.
